# Measurements: the supplement of paper PMC8728848
# The other results are listed elsewhere or left out.
# B1: LFA (Limax flavus) (protein)
# chain: MSVLFLAASFLLLASFELVAAQGCPRQDPGDWIVIQRRLNADVNFYRGWADYKHGFGDLRCNFWLGNEKIHQLTSHGRYKLRVEFTFNNKSYFAEYSTFKILGEADKYKLQVGGYSGNAGDALTFHNGMAFSTNDRDNDADSIDCAKVYHGAWWYKTCHESNLNGKWGSKKYGEGLNWKAKTTFTATATSSLLKIKALK
# Legend:
# Test in all cases: glycan array binding signal (z-score within array); higher = stronger binding
# Details in all cases: glycan notation: IUPAC condensed, linker removed
# [1] = biological target: Neu5Ac(a2-3)Gal(b1-3)GlcNAc6S
# How it was run: (§1)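 Columns mapping to the same glycan were averaged after glycan names were converted to IUPAC-condensed notation. The data come from 3228 arrays in the Consortium for Functional Glycomics database, limited to those with an available protein sequence. Binding is reported as a within-array Z-score averaged across arrays of one protein sequence and across linkers.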
# [2] = biological target: Neu5Ac(a2-3)Gal(b1-3)[Fuc(a1-4)]GlcNAc
# How it was run: as §1
# [3] = biological target: Neu5Ac(a2-3)Gal(b1-3)[Fuc(a1-4)]GlcNAc(b1-3)Gal(b1-3)[Fuc(a1-4)]GlcNAc
# How it was run: as §1
# [4] = biological target: Neu5Ac(a2-3)Gal(b1-3)[Fuc(a1-4)]GlcNAc(b1-3)Gal(b1-4)[Fuc(a1-3)]GlcNAc
# How it was run: as §1
# [5] = biological target: Neu5Ac(a2-3)Gal(b1-3)[GlcNAc(b1-6)]GalNAc
# How it was run: as §1
# [6] = biological target: Neu5Ac(a2-3)Gal(b1-3)[Neu5Ac(a2-6)]GalNAc
# How it was run: as §1
# [7] = biological target: Neu5Ac(a2-3)Gal(b1-3)[Neu5Ac(a2-6)]GlcNAc(b1-3)[Fuc(a1-3)[Gal(b1-4)]GlcNAc(b1-6)]Gal(b1-4)Glc
# How it was run: as §1
# [8] = biological target: Neu5Ac(a2-3)Gal(b1-3)]Neu5Ac(a2-3)Gal(b1-4)]GlcNAc
# How it was run: as §1
# [9] = biological target: Neu5Ac(a2-3)Gal(b1-4)Glc
# How it was run: as §1
# [10] = biological target: Neu5Ac(a2-3)Gal(b1-4)GlcNAc
# How it was run: as §1
# [11] = biological target: Neu5Ac(a2-3)Gal(b1-4)GlcNAc(b1-2)Man
# How it was run: as §1
# [12] = biological target: Neu5Ac(a2-3)Gal(b1-4)GlcNAc(b1-2)Man(a1-3)[GlcNAc(b1-4)][Neu5Ac(a2-3)Gal(b1-4)GlcNAc(b1-2)Man(a1-6)]Man(b1-4)GlcNAc(b1-4)GlcNAc
# How it was run: as §1
# [13] = biological target: Neu5Ac(a2-3)Gal(b1-4)GlcNAc(b1-2)Man(a1-3)[Neu5Ac(a2-3)Gal(b1-4)GlcNAc(b1-2)Man(a1-6)]Man(b1-4)GlcNAc(b1-4)GlcNAc
# How it was run: as §1
# [14] = biological target: Neu5Ac(a2-3)Gal(b1-4)GlcNAc(b1-2)Man(a1-3)[Neu5Ac(a2-3)Gal(b1-4)GlcNAc(b1-2)Man(a1-6)]Man(b1-4)GlcNAc(b1-4)[Fuc(a1-6)]GlcNAc
# How it was run: as §1
# [15] = biological target: Neu5Ac(a2-3)Gal(b1-4)GlcNAc(b1-2)Man(a1-3)[Neu5Ac(a2-6)Gal(b1-4)GlcNAc(b1-2)Man(a1-6)]Man(b1-4)GlcNAc(b1-4)GlcNAc
# How it was run: as §1
# [16] = biological target: Neu5Ac(a2-3)Gal(b1-4)GlcNAc(b1-2)[Neu5Ac(a2-3)Gal(b1-4)GlcNAc(b1-4)]Man(a1-3)[GlcNAc(b1-4)][Neu5Ac(a2-3)Gal(b1-4)GlcNAc(b1-2)[Neu5Ac(a2-3)Gal(b1-4)GlcNAc(b1-6)]Man(a1-6)]Man(b1-4)GlcNAc(b1-4)GlcNAc
# How it was run: as §1
# [17] = biological target: Neu5Ac(a2-3)Gal(b1-4)GlcNAc(b1-2)[Neu5Ac(a2-3)Gal(b1-4)GlcNAc(b1-4)]Man(a1-3)[GlcNAc(b1-4)][Neu5Ac(a2-3)Gal(b1-4)GlcNAc(b1-4)Man(a1-6)]Man(b1-4)GlcNAc(b1-4)GlcNAc
# How it was run: as §1
# [18] = biological target: Neu5Ac(a2-3)Gal(b1-4)GlcNAc(b1-2)[Neu5Ac(a2-3)Gal(b1-4)GlcNAc(b1-6)]Man(a1-6)[Neu5Ac(a2-3)Gal(b1-4)GlcNAc(b1-2)Man(a1-3)]Man(b1-4)GlcNAc(b1-4)GlcNAc
# How it was run: as §1
# [19] = biological target: Neu5Ac(a2-3)Gal(b1-4)GlcNAc(b1-2)[Neu5Ac(a2-3)Gal(b1-4)GlcNAc(b1-6)]Man(a1-6)[Neu5Ac(a2-3)Gal(b1-4)GlcNAc(b1-2)Man(a1-3)][GlcNAc(b1-4)]Man(b1-4)GlcNAc(b1-4)GlcNAc
# How it was run: as §1
# [20] = biological target: Neu5Ac(a2-3)Gal(b1-4)GlcNAc(b1-3)Gal
# How it was run: as §1
# [21] = biological target: Neu5Ac(a2-3)Gal(b1-4)GlcNAc(b1-3)Gal(b1-3)GlcNAc
# How it was run: as §1
# [22] = biological target: Neu5Ac(a2-3)Gal(b1-4)GlcNAc(b1-3)Gal(b1-4)GlcNAc
# How it was run: as §1
# [23] = biological target: Neu5Ac(a2-3)Gal(b1-4)GlcNAc(b1-3)Gal(b1-4)GlcNAc(b1-2)Man(a1-3)[Neu5Ac(a2-3)Gal(b1-4)GlcNAc(b1-3)Gal(b1-4)GlcNAc(b1-2)Man(a1-6)]Man(b1-4)GlcNAc(b1-4)GlcNAc
# How it was run: as §1
# [24] = biological target: Neu5Ac(a2-3)Gal(b1-4)GlcNAc(b1-3)Gal(b1-4)GlcNAc(b1-3)Gal(b1-4)GlcNAc
# How it was run: as §1
# [25] = biological target: Neu5Ac(a2-3)Gal(b1-4)GlcNAc(b1-3)Gal(b1-4)GlcNAc(b1-3)Gal(b1-4)GlcNAc(b1-2)Man(a1-3)[Neu5Ac(a2-3)Gal(b1-4)GlcNAc(b1-3)Gal(b1-4)GlcNAc(b1-3)Gal(b1-4)GlcNAc(b1-2)Man(a1-6)]GalNAc
# How it was run: as §1
# [26] = biological target: Neu5Ac(a2-3)Gal(b1-4)GlcNAc(b1-3)Gal(b1-4)GlcNAc(b1-3)GalNAc
# How it was run: as §1
# [27] = biological target: Neu5Ac(a2-3)Gal(b1-4)GlcNAc(b1-3)Gal(b1-4)GlcNAc(b1-3)[Neu5Ac(a2-3)Gal(b1-4)GlcNAc(b1-3)Gal(b1-4)GlcNAc(b1-6)]GalNAc
# How it was run: as §1
# [28] = biological target: Neu5Ac(a2-3)Gal(b1-4)GlcNAc(b1-3)Gal(b1-4)GlcNAc(b1-6)[Gal(b1-3)]GalNAc
# How it was run: as §1
# [29] = biological target: Neu5Ac(a2-3)Gal(b1-4)GlcNAc(b1-3)Gal(b1-4)[Fuc(a1-3)]GlcNAc
# How it was run: as §1
# [30] = biological target: Neu5Ac(a2-3)Gal(b1-4)GlcNAc(b1-3)GalNAc
# How it was run: as §1
binder,measurement,setting,value
B1,glycan array binding signal (z-score),[1],0.704
same,glycan array binding signal (z-score),[2],-0.355
same,glycan array binding signal (z-score),[3],-0.228
same,glycan array binding signal (z-score),[4],-0.306
same,glycan array binding signal (z-score),[5],-0.335
same,glycan array binding signal (z-score),[6],-0.187
same,glycan array binding signal (z-score),[7],-0.374
same,glycan array binding signal (z-score),[8],-0.309
same,glycan array binding signal (z-score),[9],-0.22
same,glycan array binding signal (z-score),[10],-0.238
same,glycan array binding signal (z-score),[11],0.158
same,glycan array binding signal (z-score),[12],-0.051
same,glycan array binding signal (z-score),[13],-0.34
same,glycan array binding signal (z-score),[14],-0.13
same,glycan array binding signal (z-score),[15],-0.047
same,glycan array binding signal (z-score),[16],-0.357
same,glycan array binding signal (z-score),[17],-0.317
same,glycan array binding signal (z-score),[18],-0.157
same,glycan array binding signal (z-score),[19],-0.068
same,glycan array binding signal (z-score),[20],-0.125
same,glycan array binding signal (z-score),[21],-0.206
same,glycan array binding signal (z-score),[22],-0.334
same,glycan array binding signal (z-score),[23],2.77
same,glycan array binding signal (z-score),[24],-0.231
same,glycan array binding signal (z-score),[25],4.29
same,glycan array binding signal (z-score),[26],-0.125
same,glycan array binding signal (z-score),[27],0.151
same,glycan array binding signal (z-score),[28],0.323
same,glycan array binding signal (z-score),[29],-0.267
same,glycan array binding signal (z-score),[30],-0.299
